# Data reported in the RNAGym collection of RNA variant scans (doi:10.1073/pnas.2313332121).
# Variants at the background level are over-represented here.
# B1: TPR 5TU (parent)
# chain: GGAUCUUCUCGAUCUAACAAAAAAGACAAAUCUGCCACAAAGCUUGAGAGCAUCUUCGGAUGCAGAGGCGGCAGCCUUCGGUGGCGCGAUAGCGCCAACGUUCUCAACUAUGACACGCAAAACGCGUGCUCCGUUGAAUGGAGUUUAUCAUG
# Variants of: B1
# Experiment: polymerase ribozyme fitness, log enrichment relative to wild type (log ratio); higher = more active; in vitro selection for triplet polymerase activity
# Method in brief: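 Each subunit of a heterodimeric triplet polymerase ribozyme was represented by a PCR-built, transcribed mutant library that underwent triplicate single-round in vitro selection with frozen incubation at −7 °C. Extended constructs were recovered by gel excision, streptavidin-bead capture and RT-PCR, and Illumina sequencing of input and output libraries kept genotypes with ≥10 input reads and ≥1 read per output. Fitness is the logarithm of genotype enrichment relative to wild-type enrichment, from inverse-variance-weighted replicate averages, with a logarithm base of 2.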
row,Variant,polymerase ribozyme fitness (log ratio)
1,U44G A52C U77C G83A C99A C118A U145G,≤ -4.2
2,G42A U45A G84A U102G,≤ -4.2
3,A41U G42U G50A G59A C87U G133U,≤ -4.2
4,A41U A120C C125A A142C,-4.12
5,G42C C43U A91U C93G,≤ -4.2
6,A41G G59A G81U C95A C114U,-1.27
7,G42U C54G C79U G83U U134A A138U,≤ -4.2
8,G42A A98G A142U,≤ -4.2
9,G42A C54U C93G A120U G140U,≤ -4.2
10,G42C A73C G84U C129A,≤ -4.2
11,G42U U44A C85A C96G A115C C129A,≤ -4.2
12,U44A G48A A52C G140A,≤ -4.2
13,C43G C85G U134G,≤ -4.2
14,A41U U56A C93A A121U,-3.16
15,U44A G67C A121G,≤ -4.2
16,C43U A91U A98G C99U U102G,≤ -4.2
17,A41U C72U G94A C99G,≤ -4.2
18,C43A C75A U78C C85U,≤ -4.2
19,U44A C75G C96U,-4.08
20,G42U G88U G92C C129A G140C,≤ -4.2
21,G42C C51U C87A,≤ -4.2
22,U44A C54U A115U,≤ -4.2
23,G42C G81C A120G,≤ -4.2
24,G42U C76A C85A A97U,≤ -4.2

row,Variant,polymerase ribozyme fitness (log ratio)
1,G42A A60C C63A,≤ -4.2
2,G42A G83A,≤ -4.2
3,C43U C63A A89U C99U U127G,≤ -4.2
4,G42A U55A C95U U111G A147U,≤ -4.2
5,U44A G48A G58C G83A,≤ -4.2
6,U44A G92U C96A A115C U148G,≤ -4.2
7,G42U U56A U82G G92U C118G,≤ -4.2
8,U44A C85G,≤ -4.2
9,G42C G50U G88C A107U A113C G141C A147G,≤ -4.2
10,C43A A47C A73G A97U U148C,≤ -4.2
11,A41U C76U C96G C105G U134G,≤ -4.2
12,C43G G94A G133U A137U,-4.11
13,A41U G58A G59A G88A,≤ -4.2
14,G42C C85U,-3.97
15,C43U U61G C96G C105G,≤ -4.2
16,A41G C75A U82C A98U U104A U135G,≤ -4.2
17,A41C U45G U53A G83C A91U C93U A115G U144A,≤ -4.2
18,U44G A47C G58U G59A U90G C108G G117A,≤ -4.2
19,G42U U45A U56A G83A A121U,≤ -4.2
20,U44G C75G C93A U135A,≤ -4.2
21,A41G G88U C131G,≤ -4.2
22,A41U U82G G86U A97U G124C,-3.18
23,C43U G50C C105U A110G G141U,≤ -4.2
24,U44G G50C,≤ -4.2

row,Variant,polymerase ribozyme fitness (log ratio)
1,U44A C69A A91C G143C,≤ -4.2
2,U44A G65C G68A G88A G100U C105G,≤ -4.2
3,G42A G50U A73C A91C G92C C95G U127A U144C,≤ -4.2
4,G42U U55A C57U G59C A91U C93G,≤ -4.2
5,G42A A52G U55A C79G A89U C95U C114U G133U U144C,≤ -4.2
6,U44A G83U,-3.94
7,A41G G50C U53G G67U G86C G128U C129U U146G C149U,≤ -4.2
8,A41U G46C G68A U104G,≤ -4.2
9,A41C U61A G86A G112A A115G,≤ -4.2
10,C43A C51U A107G,≤ -4.2
11,A41G C54G U104A A119G G126U,-1.16
12,G42A C96G U101G C131A A147C U148C,≤ -4.2
13,C43U C69A U82A C99G,≤ -4.2
14,U44A A47C U82C C87A U102G C116A,≤ -4.2
15,G42U C93U C96G,≤ -4.2
16,C43G G67A C96U A119U G128U,≤ -4.2
17,G42A U45A C95U A106C C108A C149U,≤ -4.2
18,G42C G68C C69G C96U,≤ -4.2
19,A41G G71C G74U C93U A98G,≤ -4.2
20,U44C U146G U151G,≤ -4.2
21,C43U U53A C57A,≤ -4.2
22,A41C U55G A66G C87U,≤ -4.2
23,G42C A60C G68A C108U C125A,≤ -4.2
24,G42A A91U A122C,≤ -4.2

row,Variant,polymerase ribozyme fitness (log ratio)
1,C43U G50C C75G C79G G84A,≤ -4.2
2,C43G A49C U53A C79G C103A A115G A150G,≤ -4.2
3,G42U C76G G80A C95G,≤ -4.2
4,A41G C63G G74A U109G U145G,≤ -4.2
5,G42U G83A C85A,≤ -4.2
6,A41G C51U A89C C95A U135C U148A,≤ -4.2
7,U44A G71C C93G A122U,≤ -4.2
8,C43U A138C,≤ -4.2
9,A41U U55A C79U G83A,≤ -4.2
10,U44A U55A U78C A120U,≤ -4.2
11,C43U U55G A60U U109A U145C U146C,≤ -4.2
12,A41U G42A G68U G94U A98G C118A A119U,≤ -4.2
13,U44A C108U,≤ -4.2
14,U44A A60U G92U G141U U145A,≤ -4.2
15,A41U G83A,-0.754
16,G42A G74A G86A U102G G143C,≤ -4.2
17,C43U G68C C96G C129A G141A,≤ -4.2
18,A41C U44G A60U C87G,≤ -4.2
19,U44G A49C C54A G83C G92A,≤ -4.2
20,A41U G59U A60C C72U C87A A138U,≤ -4.2
21,C43A A49U G74A G86C C93A C105U U144A,≤ -4.2
22,G42C C54U A91U C96A G143A,≤ -4.2
23,G42C C76U C85U A89G U104C,≤ -4.2
24,G42A G46C U55A U82G A89U C95A A98U U111A U139G,≤ -4.2

row,Variant,polymerase ribozyme fitness (log ratio)
1,U44A C69U C96U G117A A122U,≤ -4.2
2,G42A G81C A106G G126C C131G,≤ -4.2
3,C43U C85G U144G,≤ -4.2
4,U44A A142C,≤ -4.2
5,A41U C54A C96U U101C U109G U139A,≤ -4.2
6,U44A C76A A106G C118U,≤ -4.2
7,U44A U45A G58A C79U C87A C95A U139A G143U G152A,≤ -4.2
8,C43U G48A C72G G81A G84U A121G G128U A147C C149G,≤ -4.2
9,A41G C96A,0.0745
10,A41C U127C,-2.04
11,U44A C85U U139C,≤ -4.2
12,C43U C125G U151G,≤ -4.2
13,U44A A52G G68C G83C G126C U145C,≤ -4.2
14,U44A C114U,≤ -4.2
15,A41C U55A G94A G112U U134A,≤ -4.2
16,U44A U53A G62A A138G,≤ -4.2
17,A41U A91U G140A,≤ -4.2
18,G42C C54U G94A G143C,≤ -4.2
19,G42C C54G A91U G124A C131G,≤ -4.2
20,A41G C54A A60G C75A C87U G94A,≤ -4.2
21,G42C G48A C103A U144C,≤ -4.2
22,G42U G74C C123U,≤ -4.2
23,C43G C57A G58A A122C C123A G136A A137G G141C,≤ -4.2
24,C43U U56A C63G C125A A137C U146G,≤ -4.2

row,Variant,polymerase ribozyme fitness (log ratio)
1,U44C U61G C93G A121C G141U,≤ -4.2
2,C43U G68U G88U U90G,≤ -4.2
3,C43A C95U U102C C118U A119C U130A,≤ -4.2
4,U44A A47U C72G G86C A91C,≤ -4.2
5,C43U A52C C54U C79G,≤ -4.2
6,U44A G65C C99U C131A U145C U151C,≤ -4.2
7,C43U A64U C76A G84A C125G,≤ -4.2
8,A41G A98U C103G A138C,≤ -4.2
9,A41C U44A G83A,≤ -4.2
10,G42A U55A C96A,-4.06
11,G42A G59U U145G U151A,≤ -4.2
12,C43A A49U G50U A97C C149G,≤ -4.2
13,C43A G92A U111C G133A,≤ -4.2
14,U44A C95A A97U C132A U139G U144C,≤ -4.2
15,G42A U55A G62C G71A C85A,≤ -4.2
16,C43U C75A G92U C105G,≤ -4.2
17,A41U U44G U56A A91C A142C,≤ -4.2
18,U44A A64U C96G,≤ -4.2
19,A41G A49U G59U C85A C105U A106G A121U U134C,≤ -4.2
20,G42C G62A C79A G83A U146C,≤ -4.2
21,C43G U82A,≤ -4.2
22,A41U G59A A73G A89U C93G A107G,≤ -4.2
23,A41U A52C A66C A98G C103G U139A,≤ -4.2
24,C43U G67U,≤ -4.2

row,Variant,polymerase ribozyme fitness (log ratio)
1,G42U G58C A64C A91G G94A C95A A98G G126U,≤ -4.2
2,G42C A66G A89U C96U C125A,≤ -4.2
3,A41C U53G G88A,≤ -4.2
4,U44A A66G A89C C105U U130G G136U A138C,≤ -4.2
5,C43G G59C G88U C96U C149G,≤ -4.2
6,G42U C43U C57U U61A G84A C105A G143A,≤ -4.2
7,U44A A91U,≤ -4.2
8,U44A C93U A119C,≤ -4.2
9,G42U A98U U102G A120U C132G U135A A147C,≤ -4.2
10,U44A G50C U77A C87A C99U G140C A147U,≤ -4.2
11,A41G U53A U56C C76A A98G,-1.92
12,G42C U44A C54G A91U C99U G143C U145C,≤ -4.2
13,A41G G83C G143C,-3.18
14,G42C C79A C116A G124A G133C,≤ -4.2
15,U44A C76U,-4.19
16,C43A A66C C85G C103A U151A,≤ -4.2
17,A41U G83U G84U A98U A120U G124A,-3.95
18,U44A G50C U53A C87A A106G A107U,≤ -4.2
19,G42U A106C,-4.17
20,C43U A49C G80C U90G G94A C131U,≤ -4.2
21,A41C U135G,-3.54
22,G42A G58A A66C A91U G143C U145G,≤ -4.2
23,A41U G83U A150U,-1.02
